Measurements from patent US20250243260A1 (ALPINE IMMUNE SCIENCES, published 2025).

B1: CD80_171-Fc (Fc fusion)
chain: VIHVTKSVKEVATLSCGINLSVEELKQTRIYWQKEKKMVLTMMSGDLNIWPEYKNRTIFDITNNLSIVILNLRPSDEGTYECVVLKYEKDAFKREHLAEVTLSVKADGSGGGGS[omitted - human IgG4 Fc with S228P (EU numbers)]
notes: also called E7S, H18I, V20L, A26K, M47L, A71N
B2: CD80_172-Fc (Fc fusion)
chain: VIHVTKEVRSYATLSCGHNVSVEELAQTRIYWQKEKKMVLTLMSGDMNIWPEYKNRTIMDITNNLSIMILALRPSDEGTYECVVEKYEKDAFKREHLAEVTLSVKADGSGGGGS[omitted - human IgG4 Fc with S228P (EU numbers)]
notes: also called K9R, E10S, V11Y, M42L, F59M, V68M, L85E
B3: CD80_173-Fc (Fc fusion)
chain: VIHVTKEVKEYATLSCGHNVSVEELAQYRIYWQKEKKMVLTMMSGDLNIWPEYKNRTIFDITNNLSIVILALRPSDEGTYECVVEKYEKDAFKREHLAEVTLSVKADGSGGGGS[omitted - human IgG4 Fc with S228P (EU numbers)]
notes: also called V11Y, T28Y, M47L, L85E
B4: CD80_175-Fc (Fc fusion)
chain: VIHVTKEVKSFATLSCGHNVSVEELAQYRIYWQKEKKMVLTMMSGDLNIWPEYKNRTIFDISNNLSIVILALRPSDEGTYECVVLKYEKDAFKREHLAEVTLSVKADGSGGGGS[omitted - human IgG4 Fc with S228P (EU numbers)]
notes: also called E10S, V11F, T28Y, M47L, T62S
B5: CD80_176-Fc (Fc fusion)
chain: VIHVTKEVKRVATLSCGYNVSVEELGQTRIYWQKDKKMVLTMMSGDMNIWPEYKNRTIFDITNNLSILILALRPSDEGTYECVVEKYEKDAFKREHLAEVTLSVKADGSGGGGS[omitted - human IgG4 Fc with S228P (EU numbers)]
notes: also called E10R, H18Y, A26G, E35D, V68L, L85E
B6: CD80_177-Fc (Fc fusion)
chain: VIHVTKEVKGWATLSCGHNVSSEELAQPRIYWQKEKKMVLTMMSGDMNIWPEYKNRTIFDITNNLSIVILGLRPSDEGTYKCVVLKREKDAFKREHLAEVTLSVKADGSGGGGS[omitted - human IgG4 Fc with S228P (EU numbers)]
notes: also called E10G, V11W, V22S, T28P, A71G, E81K, Y87R
B7: CD80_178-Fc (Fc fusion)
chain: VIHVTKEVKEYATLSCGHNVSVEELAQYRIYWQKEKKMVLTMMSGDMNIWPEYKNRTIFDITNNLSIVILALRPSDEGTYECVVEKIEKDAFKREHLAEVTLSVKADGSGGGGS[omitted - human IgG4 Fc with S228P (EU numbers)]
notes: also called V11Y, T28Y, L85E, Y87I
B8: CD80_179-Fc (Fc fusion)
chain: VIHVTKEVKEVATLSCGFNVSVEELAQTRIYWQKEKKMVLTGMSGDMNIWPEYKNRTIYDITNNLSINILALRPSDEGTYECVVLKYEKDAFKREHLAEVTLSVKADGSGGGGS[omitted - human IgG4 Fc with S228P (EU numbers)]
notes: also called H18F, M42G, F59Y, V68N
B9: CD80_180-Fc (Fc fusion)
chain: VIHVTKEVKGWATLSCGHNVSVEELAQYRIYWQKEKKMVLTMMSGDLNIWPEYKNRTIFDITNNLSIVILALRPSDEGTYECVVLKYEKDAFKREHLAEVTLSVKADGSGGGGS[omitted - human IgG4 Fc with S228P (EU numbers)]
notes: also called E10G, V11W, T28Y, M47L
B10: CD80_181-Fc (Fc fusion)
chain: VIHVTKEVSRYATLSCGHNVSVEELAQTRIYWQKEKKMVLTMMSGDLNIWPEYKNRTIFDITNNLSIVILGLRPSDEGTYECVVLKYEKDAFKREHLAEVTLSVKADGSGGGGS[omitted - human IgG4 Fc with S228P (EU numbers)]
notes: also called K9S, E10R, V11Y, M47L, A71G
B11: CD80_182-Fc (Fc fusion)
chain: VIHVTKEVKGWATLSCGHNVSVEELAQTRIYWQKGKKMVLTMMSGDLNIWPEYKNRTIFDITNNLSIVILGLRPSDEGTYECVVLKREKDAFKREHLAEVTLSVKADGSGGGGS[omitted - human IgG4 Fc with S228P (EU numbers)]
notes: also called E10G, V11W, E35G, M47L, A71G, Y87R
B12: CD80_183-Fc (Fc fusion)
chain: VIHVTKEVKEYATLSCGHNVSVEELAQYRIYWQKEKKMVLTMMSGDLNIWPEYKNRTIFDITNNLSIVILGLRPSDEGTYECVVLKREKDAFKREHLAEVTLSVKADGSGGGGS[omitted - human IgG4 Fc with S228P (EU numbers)]
notes: also called V11Y, T28Y, M47L, A71G, Y87R
B13: CD80_184-Fc (Fc fusion)
chain: VIHVTKEVKEYATLSCGHNVSVEELQQTRIYWQKEKKMVLTMMSGDLNIWPEYKNRTIFDITNNLSIVILGLRPSDEGTYECVVLKREKDAFKREHLAEVTLSVKADGSGGGGS[omitted - human IgG4 Fc with S228P (EU numbers)]
notes: also called V11Y, A26Q, M47L, A71G, Y87R
B14: CD80_187-Fc (Fc fusion)
chain: VIHVTKEVKEYATLSCGYNVSVEELAQTRIYWQKGKKMVLTMMSGDMNIWPEYKNRTIFDITNNLSIVILALRPSDEGTYECVVQKYEKDAFKREHLAEVTLSVKADGSGGGGS[omitted - human IgG4 Fc with S228P (EU numbers)]
notes: also called V11Y, H18Y, E35G, L85Q
B15: CD80_188-Fc (Fc fusion)
chain: VIHVTKEVKEVATLSCGHNVSVEELAQTRIYWQKDKKMVLTMMSGDMNIWPEYKNRTIFDITNNLSILILALRPSDEGTYECVVEKYEKDAFKREHLAEVTLSVKADGSGGGGS[omitted - human IgG4 Fc with S228P (EU numbers)]
notes: also called E35D, V68L, L85E
B16: CD80_189-Fc (Fc fusion)
chain: VIHVTKEVKGWATLSCGHNVSVEELAQTRIYWQKEKKMVLTMMSGDVNIWPEYKNRTIFDITNNLSIVILALRPSDEGTYECVVEKYEKDAFKREHLAEVTLSVKADGSGGGGS[omitted - human IgG4 Fc with S228P (EU numbers)]
notes: also called E10G, V11W, M47V, L85E
B17: CD80_190-Fc (Fc fusion)
chain: VIHVTKEVKEVATLSCGHNVSVEELAQYRIYWQKEKKMVLTMMSGDLNIWPEYKNRTIFDITNNLSIVILALRPSDEGTYECVVLKYEKDAFKREHLAEVTLSVKADGSGGGGS[omitted - human IgG4 Fc with S228P (EU numbers)]
notes: also called T28Y, M47L
B18: CD80_191-Fc (Fc fusion)
chain: VIHVTKEVKEYATLSCGHNVSVEELAQYRIYWQKEKKMVLTMMSGDLNIWPEYKNRTIFDITNNLSILILALRPSDEGTYECVVEKYEKDAFKREHLAEVTLSVKADGSGGGGS[omitted - human IgG4 Fc with S228P (EU numbers)]
notes: also called V11Y, T28Y, M47L, V68L, L85E

What follows are binders tested against T1, human PD-L1 (human, UniProt Q9NZQ7) (assay: flow cytometry, SCC152/PD-L1 cells).
T1 construct: whole, on cells; also called SCC152/PD-L1 cells
T1 sequence (Q9NZQ7 19-290): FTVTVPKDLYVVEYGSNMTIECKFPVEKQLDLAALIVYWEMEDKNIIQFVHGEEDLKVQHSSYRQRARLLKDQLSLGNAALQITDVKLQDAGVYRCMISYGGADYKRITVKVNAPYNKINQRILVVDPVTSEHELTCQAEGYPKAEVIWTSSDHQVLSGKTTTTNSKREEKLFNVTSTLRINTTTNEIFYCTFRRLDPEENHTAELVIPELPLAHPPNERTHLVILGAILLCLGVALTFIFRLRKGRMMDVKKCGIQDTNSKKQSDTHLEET
Procedure: Binding affinity to CD28 was determined using primary human T cells which endogenously express CD28. Binding to PD-L1 was determined using SCC152 cells transduced with human PD-L1. Binding to CTLA-4 was measured using Chinese hamster ovary (CHO) cells stably transduced to express human CTLA-4.
For staining and analysis by flow cytometry, 75,000 human T cells, SCC152/PD-L1 cells, or CHO/CTLA-4 cells were plated in 96-well round-bottom plates. Cells were spun down and resuspended in staining buffer (PBS (phosphate buffered saline), 1% BSA (bovine serum albumin), 1 mM EDTA, and 0.1% sodium azide) for 20 minutes to block non-specific binding. Afterwards, cells were centrifuged, stain buffer aspirated, and then resuspended in 50 μL of a 1:5 serial dilution of each CD80-Fc candidate variant starting at 100 nM ending at 0.8 nM. Primary staining was performed on ice for 60 minutes, before washing cells in […] staining buffer three times. PE-conjugated anti-human Fc (Jackson ImmunoResearch, USA) was diluted 1:250 in 50 μL staining buffer and added to cells and incubated another 30 minutes at 4° C. Cells were washed two times in 150 μL stain buffer and then fixed in 2% formaldehyde/PBS for 5 minutes at room temperature. Samples were analyzed CytoFLEX LX flow cytometer (Beckman Coulter, USA). Median Fluorescence Intensity (MFI) was calculated for each cell type using the CytExpert software from Beckman Coulter.

| Anti-Human Fc (MFI) at 0.8 nM | Anti-Human Fc (MFI) at 4 nM | Anti-Human Fc (MFI) at 20 nM | Anti-Human Fc (MFI) at 100 nM | fold change vs WT CD80 @20 nM | Binder |
| --- | --- | --- | --- | --- | --- |
| 627 MFI | 653 MFI | 692 MFI | 738 MFI | 1 fold | B1 |
| 677 MFI | 803 MFI | 1090 MFI | 1690 MFI | 1.6 fold | B2 |
| 952 MFI | 1660 MFI | 3850 MFI | 5930 MFI | 5.6 fold | B3 |
| 2830 MFI | 5700 MFI | 6850 MFI | 6770 MFI | 10 fold | B4 |
| 1570 MFI | 2490 MFI | 2970 MFI | 3320 MFI | 4.3 fold | B5 |
| 727 MFI | 873 MFI | 1220 MFI | 2430 MFI | 1.8 fold | B6 |
| 780 MFI | 1024 MFI | 1650 MFI | 3250 MFI | 2.4 fold | B7 |
| 786 MFI | 999 MFI | 1660 MFI | 3230 MFI | 2.4 fold | B8 |
| 1000 MFI | 1830 MFI | 4200 MFI | 6570 MFI | 6.2 fold | B9 |
| 811 MFI | 1090 MFI | 2210 MFI | 5110 MFI | 3.2 fold | B10 |
| 854 MFI | 1220 MFI | 2740 MFI | 5530 MFI | 4 fold | B11 |
| 1320 MFI | 3260 MFI | 7900 MFI | 10800 MFI | 11.6 fold | B12 |
| 1590 MFI | 3990 MFI | 9400 MFI | 11500 MFI | 13.8 fold | B13 |
| 836 MFI | 1070 MFI | 1880 MFI | 3360 MFI | 2.7 fold | B14 |
| 1240 MFI | 1970 MFI | 2800 MFI | 3340 MFI | 4.1 fold | B15 |
| 806 MFI | 854 MFI | 1160 MFI | 1950 MFI | 1.7 fold | B16 |
| 589 MFI | 597 MFI | 561 MFI | 659 MFI | – | B17 |
| 1940 MFI | 5250 MFI | 8680 MFI | 9620 MFI | 12.7 fold | B18 |
